Reference: the supplement of paper PMC11417369
This is one part of the list.

tested on: PF3D7_0420300 AP2 domain 1 (GST-tagged); assay: gcPBM binding intensity (ln(normalized median fluorescence intensity)); higher = stronger DNA binding
Summary of the method: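 Binding intensity values are the highest Masliner-normalised natural-log median intensity among replicate spots of either probe orientation. The binding step lasted 1 h in 1× PBS with 1% milk, 0.2 mg/ml BSA, 0.5% salmon testes DNA and 0.03% Triton X-100, using GST-tagged P. falciparum DNA-binding domains expressed in E. coli on an Agilent 4 × 180k array of primer-extended double-stranded 36-bp intergenic genomic probes plus negative controls. Alexa488 anti-GST antibody and a 488 nm scan detected bound protein.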

Sequence	gcPBM binding intensity (ln)
TATATATATACAGTTGCATGTTGTGTTTAAAATTTT [TGCATGCA_site816]	9.53
TGTTAAAAAATGGATGCACACATTAAATAAAAAGTA [CACACA_site1660]	9.53
ACATTATATTTGGACTGTACTAATATATTGTTATAT [XGTACX_site5573]	9.25
TATACATATATATATTGTACATATTATATATATATA [XGTACX_site3286]	9.13
ATATATATATATATATGTACATATTGTATCTTATAC [XGTACX_site5466]	9.2
ACATTTAATGTTATATGTACATAATATTATAAGTAT [XGTACX_site1393]	9.3
AATGTAAAAGTAAACACACACATATATTTATACATA [CACACA_site7218]	9.77
AGCCATATCTTTTTTGCACACACTACAATAAAACAA [CACACA_site1650]	9.56
CATATGGCAATAATTACATGCAAAAAAAAAAAAAAA [TGCATGCA_site578]	8.88
ACAGACGTTCAAAGGTGTACGCAAAATGAATAATAT [XGTACX_site7565]	9.22
AAAAAAAAGAAAAACACACACATATATATATATAAT [CACACA_site4707]	9.97
GTAAATCGACACATACGTACATACATTTATATATAT [XGTACX_site3143]	9.48
TTCTTATTTAATGTATCACACACGAGAATAAAAAAT [CACACA_site8992]	9.31
TATATATATATATAATGTACTTATATTTTTTTGAGG [XGTACX_site2638]	9.18
TTAATTAAAACGAATACACACATAAATATGTAAAAG [CACACA_site6707]	9.67
ATATGTATAAGTATGTATATTTATTTATACTTATGT [GTGCAC_negctrl_site221]	9.26
AAAAAAAAAAAAAAAAGTACATATATATATTTATAT [XGTACX_site5893]	9.15
TTTTAAATTTAATTTACACACTTTTCATAGCATTGA [CACACA_site3794]	9.23
TTCTATTCACATTTTACACACGTCCATCGCATTTTA [CACACA_site3453]	9.89

Sequence	gcPBM binding intensity (ln)
TATATATATGGTTTAACACACGAGATAAAAGTATAT [CACACA_site2867]	9.63
TTATATTTATAAAATTGTATACCCCTTCTAACTTTC [CACACA_negctrl_site250]	9.06
ATTGTGCTCATCAGCACACACAACATCATGTAATAA [CACACA_site1863]	9.47
TATATGGTATGTATTACACACATATCACATATAGAT [CACACA_site7426]	9.45
AAATGTAATTTGTCTTTTATTTATATTTGACATGAT [TGCATGCA_negctrl_site520]	9.11
ATATTAATGATATATACACACATAAGTATTGTATAT [CACACA_site7844]	9.45
AAAAATTATAAAAAACAAATATTAAATAATTATTAA [GTGCAC_negctrl_site125]	9.07
TTGATGGGAAAAAACTTTTTTTTCTTTTTTTCTTTC [CACACA_negctrl_site328]	8.84
AAAAGGAAGATATATACACACATACAAATATTTATA [CACACA_site7093]	9.79
TATCACCCACCATGAAGTACATATTACCATTTGATG [XGTACX_site845]	9.46
ATAAATAAATAAAAGCGTACATATATATAAAATATA [XGTACX_site8107]	9.39
TTATACTAAATGAACACACACACATATATATATATA [CACACA_site99]	9.81
AGAGTTAAACGATATATATAAATATATATATATATA [GTGCAC_negctrl_site316]	9.06
AAAAAAAAAAACGACAGTACAATTATAATTTATATT [XGTACX_site2365]	9.32
AGATCATAATATTATACACACATTAGATATAGGTAA [CACACA_site6809]	9.67
ATGTCTTAAAAATTAAAACACACGTTCACTTTCATA [CACACA_site3385]	9.22
TGGTGAAAAATATAAATATAAATAAATATATATATA [CACACA_negctrl_site1725]	9.02
AGAAGAAAACAAAACACACACATATATCTTAATATA [CACACA_site2231]	9.9
AAAAAAAAAAACTTTGCATGTAATAATAAAAAAAAA [TGCATGCA_site81]	9.08

Sequence	gcPBM binding intensity (ln)
ATGATCTGTTTGTTTGTGCACATATATATATATTAA	9.61
TTTATATTTTTTTTTGCACACTTTAAAAAAATATAT [CACACA_site1146]	9.22
TATATATTACATAAAACACACAAAAAAAAAATTAAA [CACACA_site3882]	9.58
AAATAAATTGAAGATACATGCATATTTTTTTTTTAT [TGCATGCA_site686]	9.11
GAATATTTATGATGAACTATTAATTAATTTTACATA [GTGCAC_negctrl_site353]	8.91
ATGTAGAGTAATAGTTGTACAAGGTGTATATCTCAT [XGTACX_site6370]	9.56
AATTAAATGTTTCTAAGATATACGACCAATGTATTT [CACACA_negctrl_site1694]	9.06
AATTAATGGGTACATACACACATATATACATACATA [CACACA_site742]	9.63
CATCAATGCTAATTATGTACTTACATAAATAACCCT [XGTACX_site968]	9.2
ATACCTAAAAAATATACACACATATATATAAATATA [CACACA_site2580]	9.67
TGTATTATCTCTTATGAACACACATTTTTATTTTCA [CACACA_site9107]	9.51
ATGTTAATTAATGAGGTGCATTGAATATTTCAATAA	9
ATAAATAAAACAACAGTGCAATAAAATTAGTTGAGG	9.62
TGGTAATACCCATACACACACACATACCCATATATA [CACACA_site5509]	10.1
TTTTTTATGAGGTGGTGTACTTTTTTTTTTTTCTTT [XGTACX_site8550]	9.46
CAAGAAACAGTGATACGTACACATATATATATATAT [XGTACX_site3229]	9.6
ATTAAAGAGAGACATCAACACACATACGTATGTATA [CACACA_site8393]	9.54
TTCAAATAAATAGTAGTGCATATTTATTAATGTAAA	9.1
TAATATATTATAAACACATGCACATTAATAATAACT [TGCATGCA_site708]	9.44
